This note sets out measurements from PubChem BioAssay AID1745853 (National Center for Advancing Translational Sciences (NCATS), 2022).

Common to all, as to test: Primary Screen for Target Class Profiling of Small Molecule Inhibitors of Methyltransferases
Assay [1] concerns the target Glycine N-methyltransferase (Homo sapiens) (UniProt Q14749). The settings on record: purified enzyme, MTase-Glo SAH luminescence; measured here: GNMT inhibition; at 40 µM; stronger effect = lower value. In a few lines: (§1)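 Each enzyme was reacted with SAM and its substrate, with compounds tested once at 40 uM; SAH formed was read by MTase-Glo luminescence.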
In assay [2] the target is Guanidinoacetate N-methyltransferase (Homo sapiens) (UniProt Q14353). The settings on record: purified enzyme, MTase-Glo SAH luminescence; measured here: GAMT inhibition; at 40 µM; stronger effect = lower value. The gist of the method: as §1
Assay [3] deals with Histamine N-methyltransferase (Homo sapiens) (UniProt P50135). The following applies: purified enzyme, MTase-Glo SAH luminescence; measured here: HNMT inhibition; at 40 µM; stronger effect = lower value. In a few lines:
as §1

The target in assay [4] is Nicotinamide N-methyltransferase (Homo sapiens) (UniProt P40261). The settings on record: purified enzyme, MTase-Glo SAH luminescence; measured here: NNMT inhibition; at 40 µM; stronger effect = lower value. The gist of the method:
as §1

Assay [5] has as its target Phenylethanolamine N-methyltransferase (Homo sapiens) (UniProt P11086). The following applies: purified enzyme, MTase-Glo SAH luminescence; measured here: PNMT inhibition; at 40 µM; stronger effect = lower value. The gist of the method:
as §1

The list shows a part of the results. The main result of the screen is listed elsewhere. These columns were measured beside it and carry no call.
% is scaled to controls: 0 for no effect and ±100 for the full control effect.

As to `COCCN1CC2CN(C(=O)c3ccc(Cc4c(C)noc4C)o3)CC(C1)O2`, the activity change, negative = inhibition in assay [1] was -3.61%; in assay [2], -1.03%; in assay [3], -2.81%; in assay [4], -2.9%; in assay [5], 4.22%.
Taken in the same sequence, the figures for `CC1(C(=O)NC2CCCCCCC2)Cn2c(ccc2-c2ccccc2)C(=O)N1Cc1ccccc1` (configuration not stated) were -0.493%, 2.16%, -5.34%, -7.7% and -5.79%.
`CCCn1c(=O)c2ccccc2n2c(SCC(=O)NCc3ccc(C)cc3)nnc12`: the activity change, negative = inhibition in assay [1] stood at 3.48%; in assay [2] it was 0%; in assay [3], 0.733%; in assay [4], 1.73%; in assay [5], 0.931%.
Turning to `CC(=O)O[C@@H]1CC2C(C)(C)C(=O)C=C[C@]2(C)C2CC[C@@]3(C)[C@H](c4ccoc4)OC(=O)[C@H]4O[C@]43[C@@]21C` (some centres not stated), the activity change, negative = inhibition is -2.1% in assay [1]; 4.26% in assay [2]; 7.9% in assay [3]; -10.7% in assay [4]; 6.56% in assay [5].
As to `CC(=O)Nc1c2n(c3ccccc13)CC(C)(C(=O)NC1CCCCCC1)N(Cc1ccccc1)C2=O` (configuration not stated), the activity change, negative = inhibition in assay [1] was 1.41%; in assay [2], 0%; in assay [3] it was 3.23%; in assay [4], 2.29%; in assay [5] it was 3.03%.
In the case of `CCCn1c(=O)c2ccc(Cl)cc2n2c(=O)n(CC(=O)Nc3ccccc3F)nc12`, the activity change, negative = inhibition is -1.35% in assay [1]; 2.38% in assay [2]; 4.07% in assay [3]; -4.42% in assay [4]; 1.31% in assay [5].
In the case of `Cc1nnc(-c2cc(-c3ccsc3)ccn2)n1-c1ccccc1`, the activity change, negative = inhibition in assay [1] is -15.6%; in assay [2], -0.292%; in assay [3] it was -19.1%; in assay [4], -23.9%; in assay [5], -13.6%.
As for `O=C(NCc1nnc2c(-c3nc(C4CC4)no3)cccn12)C1CC1`, the activity change, negative = inhibition in assay [1] is -1.68%; in assay [2] it was -3.14%; in assay [3], -0.72%; in assay [4], -2.87%; in assay [5], -4.49%.
As to `COc1cccc(C(C)N(C)Cc2nc(-c3cccs3)no2)c1` (configuration not stated), the activity change, negative = inhibition in assay [1] is -1.63%; in assay [2] it was -0.734%; in assay [3] it was 0.945%; in assay [4], -5.03%; in assay [5], 10.4%.
`COC(=O)[C@@H]1C2CC3c4[nH]c5ccccc5c4CCN3CC2CC[C@@H]1O` (some centres not stated): the activity change, negative = inhibition in assay [1] is -0.575%; in assay [3] it was 7.56%.
As to `CCNC(=O)N1CC(C(=O)NCc2ccco2)CC(c2ccc(OC)c(OC)c2)C1` (configuration not stated), the activity change, negative = inhibition in assay [1] is -8.09%; in assay [2], -1.69%; in assay [3] it was -1.75%; in assay [4], -3.52%; in assay [5] it was -2.97%.
Consider `COc1ccc(OC)c(CCNC(=O)CCc2nnc3n(CCc4ccccc4)c(=O)c4ccccc4n23)c1`, for which the activity change, negative = inhibition in assay [1] is -6.67%; in assay [2], 2.32%; in assay [3], -1.09%; in assay [4], -6.7%; in assay [5], -8.43%.
As for `CC(CNS(=O)(=O)C(C)C)c1ccc(-c2ccc(C#N)cc2)cc1` (configuration not stated), the activity change, negative = inhibition was -6.08% in assay [1]; 1.32% in assay [2]; 11.4% in assay [3]; -10.2% in assay [4]; 0.729% in assay [5].
On to `c1cncc(CN2CC(N3CCc4ccccc43)C2)c1`, for which the activity change, negative = inhibition was -3.58% in assay [1]; -3.67% in assay [2]; -6.2% in assay [3]; 0.57% in assay [4]; -5.99% in assay [5].
The matching figures for `Cc1cccc(OC2(C(=O)O)CCN(c3cncc(C(N)=O)n3)CC2)c1`: -3.06%, 0.088%, 0.625%, -2.15% and -0.042%.
Consider `COCCCn1c(C)cc(C(=O)N[C@@H]2CN(C)C[C@H]2CN(C)C)c1C`, for which the activity change, negative = inhibition in assay [1] was -2.6%; in assay [2], -1.21%; in assay [3] it was 1.25%; in assay [4], 1.83%; in assay [5], 1.87%.
Take `CCCn1c(=O)c2ccc(C(=O)NC(C)CC)cc2n2c(=O)n(CC(=O)c3ccc(OC)cc3)nc12` (configuration not stated): the activity change, negative = inhibition was -0.42% in assay [1]; 0% in assay [2]; 1.22% in assay [3]; -3.96% in assay [4]; 1.91% in assay [5].
For the compound `COc1ccc(-c2ccc3nc(-c4cccc(F)c4)oc3c2)c(OC)c1OC`, the activity change, negative = inhibition in assay [1] was -11.9%; in assay [2], -2.37%; in assay [3] it was -5.47%; in assay [4], -3.46%; in assay [5], -11.2%.
Consider `CNc1nc(C(=O)N2CCc3nc(-c4ccccc4)[nH]c3C2)cs1`, for which the activity change, negative = inhibition in assay [1] was -5.72%; in assay [2], -4.04%; in assay [3], -5.59%; in assay [4], -4.07%; in assay [5], -4.65%.
Take `CC(C)CCN(C1CCOCC1)C1CCN(Cc2cccnc2)CC1`: the activity change, negative = inhibition in assay [1] is -8.31%; in assay [2], -6.04%; in assay [3], -5.26%; in assay [4], -2.98%; in assay [5], -9.55%.
For `CC(C)(C)c1ccc(-c2nc3c(N4CCN(Cc5ccc6nccnc6c5)CC4)cccc3[nH]2)cc1`, the activity change, negative = inhibition in assay [1] is -1.88%; in assay [2], -18.1%; in assay [3], -0.298%; in assay [4], -45.7%; in assay [5], -15.4%.
Taken in the same sequence, the figures for `Cc1ccc(CNC(=O)CSc2nnc3n(C)c(=O)c4ccc(C(=O)NC5CCCC5)cc4n23)cc1` were -5.16%, -3.62%, 1.4%, 2.93% and -0.016%.
For the compound `CCCn1c(=O)c2ccc(Cl)cc2n2c(SCC(=O)Nc3ccc(F)cc3)nnc12`, the activity change, negative = inhibition in assay [1] was -0.622%; in assay [2], 1.32%; in assay [3] it was 4.27%; in assay [4] it was -2.54%; in assay [5] it was -2.32%.
For the compound `CNC(=O)[C@@H]1CCCC[C@@H]1C(=O)N1CCn2nc(Cc3ccccc3)cc2C1`, the activity change, negative = inhibition is -6.11% in assay [1]; -6.38% in assay [2]; -6.74% in assay [3]; -10.6% in assay [4]; 1.55% in assay [5].
Consider `Cc1noc(C)c1C(=O)N(C)C1CCc2nnc(C)n2CC1` (configuration not stated), for which the activity change, negative = inhibition in assay [1] was 1.59%; in assay [2], -2.63%; in assay [3] it was -0.809%; in assay [4] it was 4.13%; in assay [5], 2.15%.
On to `CN1C(=O)c2cc(C(=O)NCc3ccccc3)nn2CC1(C)C(=O)NCc1ccc(F)cc1` (configuration not stated), for which the activity change, negative = inhibition in assay [1] worked out at 9.43%; in assay [2] it was 0%; in assay [3], 9.29%; in assay [4] it was 11.4%; in assay [5] it was 3.72%.
Taken in the same sequence, the figures for `CN1CCN(C(=O)c2cc3n(n2)CC(C)(C(=O)NCc2ccc(F)cc2)N(C)C3=O)CC1` (configuration not stated) were 4.58%, 0%, -4.45%, 10.5% and 5.82%.
As for `CC1(C)CC[C@]2(C(=O)O[C@@H]3O[C@H](CO[C@@H]4O[C@H](CO)[C@@H](O)[C@H](O)[C@H]4O[C@@H]4O[C@H](CO)[C@H](O)[C@H](O)[C@H]4O)[C@@H](O)[C@H](O[C@@H]4O[C@H](CO)[C@@H](O)[C@H](O)[C@H]4O)[C@H]3O)CC[C@]3(C)C(=CCC4[C@@]5(C)CC[C@H](O[C@@H]6OC[C@@H](O)[C@H](O)[C@H]6O)[C@@](C)(C(=O)O)C5CC[C@]43C)[C@@H]2C1` (some centres not stated), the activity change, negative = inhibition in assay [1] is 2.51%; in assay [2], -1.23%; in assay [3], 2.8%; in assay [4], -15.4%; in assay [5] it was 4.25%.
For the compound `CC1(C(=O)NC2CCCCCC2)Cn2c(ccc2-c2ccccc2)C(=O)N1CCN1CCOCC1` (configuration not stated), the activity change, negative = inhibition is 2.67% in assay [1]; 0% in assay [2]; -1.6% in assay [3]; 0.882% in assay [4]; -0.88% in assay [5].
